Measurements published in PubChem BioAssay AID1347417 (National Center for Advancing Translational Sciences (NCATS), 2020).
The campaign covered roughly 120,000 compounds. About 5,300 (4.4%) were called active. The inconclusive results got no clear call from the source; some entries with a clear call stand among them for comparison. Calls follow the shape of the dose curve; as a rule, active = well fitted inhibition curve with a large enough effect; inconclusive = small, poorly fitted or top-dose-only effect; inactive = no such curve, though single readings can be large or run the other way. A potency beside an inconclusive call is a rough fit, not a confirmed value.

assay: qHTS Primary assay for Inhibitors of Plasmodium falciparum Dd2 growth in vitro; also: nearly all actives have a fitted effect of over 65% in size; conditions: P. falciparum Dd2 growth, SYBR Green, 72 h; series mostly up to 28.9 µM
In short: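 Readout: SYBR Green fluorescence, 485 nm excitation, 535 nm emission, after ~16 h lysis at 37C. Before that, Dd2-infected red cells (2.5% hematocrit) grew 72 h with compound, 29 uM top final concentration.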
Potency is read from the fitted curve at half-maximal effect; tags tell the direction and shape of the fitted curve.

Compound | Potency | outcome
CCOC(=O)c1cccc(NC(=O)N2CC[C@@H](CC(=O)N[C@@H](CO)CC(C)C)[C@@H](CC)C2)c1 | inconclusive: 1 µM [inhibitor, full curve, poor fit] | –
O=C1N(Cc2cccc(F)c2F)CCCC1(O)CNCc1cccc(F)c1 (configuration not stated) | inconclusive: 8.91 µM [inhibitor, single point] | –
O=C1NCCCCCCN(C(=O)C2CCCC2)[C@H]2CCCC[C@@H]12 | inconclusive: 0.112 µM [inhibitor, full curve] | –
CCc1c(C)nc(-c2ccc(F)cc2)n(CC(=O)Nc2ccc(OC)c(OC)c2)c1=O | inconclusive: 20 µM [inhibitor, single point] | –
CS(=O)(=O)N1CCCN(C(=O)Cc2cccc(F)c2)CCNC(=O)CC1c1ccccc1 (configuration not stated) | inactive | –
CCSc1nc(-c2ccc(OC)cc2)nc2c1Cc1c(CO)cnc(C)c1O2 | inconclusive: 4.47 µM [inhibitor, partial curve, poor fit] | –
Cc1ccc2nc(COc3ccccc3NC(=O)Nc3ccc(F)c(Cl)c3)cc(=O)n2c1 | inconclusive: 20 µM [inhibitor, partial curve, poor fit] | –
Cn1nccc1C(=O)N1CCC(c2nn(C)c3c2COCC3)CC1 | – | inactive [at 5.79 µM]
CC(=O)N1CCCc2ccc(NC(=O)c3ccc(OC(C)C)cc3)cc21 | inconclusive: 8.91 µM [inhibitor, single point] | –
Cc1ccc(CNC(=O)C2N(C(C)C)C(=O)C23CCCC3)o1 (configuration not stated) | inactive | –
Cc1ccc(Cl)cc1NC(=O)Cn1c(C)cc2nc3n(c(=O)c21)CCC3 | inactive | –
Cc1ccccc1Cn1cc(-c2ccncc2)cc1C(=O)N1CCCC1 | inconclusive: 12.6 µM [inhibitor, single point] | –
COc1ccccc1NC(=O)N1CCN(c2ccc3nnc(-c4ccc(F)cc4)n3n2)CC1 | inconclusive: 14.1 µM [inhibitor, single point] | –
C[S+](=O)([O-])N1CC2(CCCN(CC3CCCCC3)C2)Cc2ccccc21 (configuration not stated) | inconclusive: 7.08 µM [inhibitor, partial curve] | –
COc1ccc(-c2noc([C@@H]3CCCN3C(=O)c3ccc(C#N)cc3)n2)cc1OC | inconclusive: 12.6 µM [inhibitor, single point] | –
CCNC(=O)N[C@H]1[C@H](O)[C@@H](N2CCN(C(C)=O)CC2)[C@@H]2OC[C@H]1O2 | inconclusive: 31.6 µM [inhibitor, single point] | –
COc1ccccc1N1CCN(C(=O)c2cc3c(=O)n(Cc4cccs4)ccc3nc2C)CC1 | inconclusive: 11.2 µM [inhibitor, partial curve] | –
CCOC(=O)N1CCc2c(sc3c2c(=O)n(-c2ccc(CC)cc2)c(=O)n3Cc2ccc(F)cc2Cl)C1 | active: 10 µM | –
CNC(=O)[C@@H]1C[C@H](n2cc(CNC(=O)CCC3CCCCC3)nn2)CN1 | inactive | –
COc1ccc(N2CCN(CCCNC(=O)c3c(C)nn(-c4ccc(F)cc4)c3-n3cccc3)CC2)cc1 | inconclusive: 7.08 µM [inhibitor, partial curve, poor fit] | –
COc1ccc(S(=O)(=O)N(CC(=O)NC(C)c2ccccc2)c2ccc(C)cc2)cc1OC (configuration not stated) | inconclusive: 8.91 µM [inhibitor, partial curve, poor fit] | –

Compound | Potency | outcome
COCCN1Cc2ccc(NCc3ccccc3)nc2C(C)(C(=O)N(C)CCOC)C1 (configuration not stated) | inconclusive: 0.112 µM [inhibitor, full curve, poor fit] | –
CSc1cccc(NC(=O)N(C)CC2CCOCC2)c1 | inactive | –
COc1ccc(NC(=O)[C@@H]2C[C@@H](c3cccc(C(F)(F)F)c3)N(C)C2)cc1 | inconclusive: 31.6 µM [inhibitor, single point] | –
CNC(=O)[C@@H]1CNC[C@H]1C1CCN(C)CC1 | inactive | –
CCOc1ccccc1Nc1sc(C(=O)c2ccccc2)c(N)c1C(=O)Nc1ccc(F)cc1 | inconclusive: 17.8 µM [inhibitor, single point] | –
Cc1ccc(OCC(=O)Nc2ccc(OCc3cc(=O)n4c(C)csc4n3)cc2)cc1C | inconclusive: 0.794 µM [inhibitor, full curve, poor fit] | –
O=C(Nc1ccccc1F)N1CC2CCC(C1)N2Cc1ccc(-c2cc(F)cc(F)c2)cc1 | inconclusive: 17.8 µM [inhibitor, single point] | –
CCOC(=O)c1c(C)oc2ncnc(Nc3cccc(C(F)(F)F)c3)c12 | inactive | –
C[S+](=O)([O-])c1ccc(-c2nccc3c(=O)cc(-c4cccnc4)oc23)cc1 | inactive | –
Cc1cc(S(=O)(=O)N2CCC(Oc3ccc(C(N)=O)cn3)CC2)ccc1Cl | inactive | –
COc1ccc(F)cc1S(=O)(=O)N1CCCC(Cn2c(C3CC3)nc3cccnc32)C1 (configuration not stated) | inactive | –
CC1=NS(=O)(=O)N(C)C=C1C(=O)OCc1nc(-c2ccccc2F)no1 | inactive | –
COc1ccc(OC)c2nc(-c3cccc(Cl)c3)c(CN3CCCC(O)C3)cc12 (configuration not stated) | inconclusive: 15.8 µM [inhibitor, partial curve, poor fit] | –
OCC1(CN2CCCC2)CCN(Cc2c(Cl)cccc2Cl)CC1 | inconclusive: 14.1 µM [inhibitor, partial curve, poor fit] | –
COc1ccc(OC2CN(C(=O)c3ccccc3F)C2)cc1 | inactive | –
CC1(C)[C@H](Cc2cc(-c3ccc(F)cc3)on2)C[C@@H]1NCc1cccnc1 | active: 7.94 µM | –
COc1ccccc1CC(=O)N1CCCc2ncc(C(=O)NCCC(C)C)cc21 | inconclusive: 25.1 µM [inhibitor, single point] | –
COc1ccc2c(c1)CN(C(=O)NCc1ccccc1)CC[C@H]1COC(=O)N21 | inactive | –
CCCOc1c(CN2CCCNCC2)cc(Cl)cc1OC | inconclusive: 2.82 µM [inhibitor, single point] | –
O=C(Nc1cccc(-c2nnc3n2CCCC3)c1)C1CC1 | inconclusive: 5.01 µM [inhibitor, partial curve, poor fit] | –
O=C(NCc1cccs1)c1ccc2c(c1)sc1nc(-c3ccc(F)cc3)cn12 | inactive | –
